Reference: the supplement of paper PMC4604168 (melanoma cell lines)
This is one part of the list. Single values are uncertain, as repeats are few or missing.

Tests used:
Assay in all cases: cell count relative to DMSO control; melanoma cells; higher = more viable cells
Details in all cases: library dose: low library concentration; 72 h
COLO792 = tested on: COLO792
COLO800 = tested on: COLO800
COLO829 = tested on: COLO829
G361 = tested on: G361
IPC-298 = tested on: IPC-298
IST-MEL1 = tested on: IST-MEL1
LB2518-MEL = tested on: LB2518-MEL
LOXIMVI = tested on: LOXIMVI
MEL-HO = tested on: MEL-HO
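Note: cell number obtained by counting DAPI-stained nuclei in high-throughput microscope images with image analysis software, screen run in 1,536-well plates.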

| Compound | cell count (COLO792) [%] | cell count (COLO800) [%] | cell count (COLO829) [%] | cell count (G361) [%] | cell count (IPC-298) [%] | cell count (IST-MEL1) [%] | cell count (LB2518-MEL) [%] | cell count (LOXIMVI) [%] | cell count (MEL-HO) [%] |
| --- | --- | --- | --- | --- | --- | --- | --- | --- | --- |
| CS(=O)(=O)c1ccc(C(=O)Nc2ccc(Cl)c(-c3ccccn3)c2)c(Cl)c1 [vismodegib] + COc1cc2c(Oc3ccc4[nH]c(C)cc4c3F)ncnc2cc1OCCCN1CCCC1 [cediranib] (first compound 1 µM, partner dose 0.4 µM) | 87.9 | 71.2 | 125 | 113 | 96.9 | 96.3 | 113 | 146 | 102 |
| C=C(c1ccc(C(=O)O)cc1)c1cc2c(cc1C)C(C)(C)CCC2(C)C [Bexarotene] + Oc1nc(-c2ccc(C(F)(F)F)cc2)nc2c1CSCC2 [XAV939] (first compound 2 µM, partner dose 2 µM) | 82.1 | 123 | 96.8 | 72.8 | 94.3 | 106 | 114 | 99.7 | 97.3 |
| CCCS(=O)(=O)Nc1ccc(F)c(C(=O)c2c[nH]c3ncc(Cl)cc23)c1F + Cn1cc(/C=C2\C(=O)Nc3cccnc32)c2ccccc21 [GW441756] (first compound 0.08 µM, partner dose 0.4 µM) | 104 | 91.6 | 127 | 84.4 | 99.2 | 99.4 | 108 | 119 | 73.1 |
| CN(c1ncccc1CNc1nc(Nc2ccc3c(c2)CC(=O)N3)ncc1C(F)(F)F)S(C)(=O)=O + COc1cc(Nc2ncc(F)c(Nc3ccc4c(n3)NC(=O)C(C)(C)O4)n2)cc(OC)c1OC [Tamatinib] (first compound 0.08 µM, partner dose 0.4 µM) | 48.3 | 88 | 67.5 | 102 | 85.9 | 93.6 | 90.8 | 54.8 | 92.5 |
| NC1(c2ccc(-c3nc4ccn5c(=O)[nH]nc5c4cc3-c3ccccc3)cc2)CCC1 + COC(=O)c1sccc1S(=O)(=O)Nc1ccc(Nc2ccccc2)cc1OC [GSK0660] (first compound 0.4 µM, partner dose 1 µM) | 76.9 | 160 | 89 | 97.4 | 97.2 | 96.6 | 88.9 | 103 | 83.5 |
| NC1(c2ccc(-c3nc4ccn5c(=O)[nH]nc5c4cc3-c3ccccc3)cc2)CCC1 + CCc1ccc(CCOc2ccc(CC3SC(=O)NC3=O)cc2)nc1 [pioglitazone] (first compound 0.4 µM, partner dose 2 µM) | 64 | 89.7 | 96.2 | 98 | 92.2 | 90.6 | 79.8 | 136 | 65.3 |
| CCCS(=O)(=O)Nc1ccc(F)c(C(=O)c2c[nH]c3ncc(Cl)cc23)c1F + CCN(CC)CCCCNc1ncc2cc(-c3cc(OC)cc(OC)c3)c(NC(=O)NC(C)(C)C)nc2n1 [PD173074] (first compound 0.08 µM, partner dose 0.1 µM) | 99.1 | 111 | 74.2 | 84.5 | 99.4 | 95.6 | 104 | 99.7 | 91.2 |
| CN(c1ncccc1CNc1nc(Nc2ccc3c(c2)CC(=O)N3)ncc1C(F)(F)F)S(C)(=O)=O + c1cc(-c2cnn3cc(-c4ccc(OCCN5CCCCC5)cc4)cnc23)ccn1 [Dorsomorphin] (first compound 0.08 µM, partner dose 0.4 µM) | 75.9 | 97.4 | 71 | 80.7 | 93.8 | 101 | 89.1 | 86 | 79.6 |
| C=C(c1ccc(C(=O)O)cc1)c1cc2c(cc1C)C(C)(C)CCC2(C)C [Bexarotene] + Cc1ccc(NC(=O)c2cccc(N(C)C)c2)cc1NC(=O)c1ccc(O)cc1 [ZM336372] (first compound 2 µM, partner dose 2 µM) | 90.1 | 136 | 95.7 | 72.5 | 81.8 | 88.3 | 92 | 173 | 76.9 |
| CCCS(=O)(=O)Nc1ccc(F)c(C(=O)c2c[nH]c3ncc(Cl)cc23)c1F + O=S(=O)(c1ccccc1)N(CC(F)(F)F)c1ccc(C(O)(C(F)(F)F)C(F)(F)F)cc1 [T0901317] (first compound 0.08 µM, partner dose 1.4 µM) | 94 | 90.4 | 110 | 74.6 | 81.9 | 100 | 114 | 94.4 | 89.7 |
| CS(=O)(=O)c1ccc(C(=O)Nc2ccc(Cl)c(-c3ccccn3)c2)c(Cl)c1 [vismodegib] + CCCCCCCCCCCC1=C(O)C(=O)C=C(O)C1=O [Embelin] (first compound 1 µM, partner dose 1.2 µM) | 105 | 118 | 101 | 101 | 99.8 | 99.8 | 112 | 119 | 103 |
| CCCS(=O)(=O)Nc1ccc(F)c(C(=O)c2c[nH]c3ncc(Cl)cc23)c1F + Oc1cc(-c2nc(-c3ccccc3)[nH]c2-c2ccncc2)ccc1Cl [L779450] (first compound 0.08 µM, partner dose 0.2 µM) | 110 | 103 | 114 | 90.1 | 83 | 93.3 | 99.8 | 161 | 91.8 |
| CCCS(=O)(=O)Nc1ccc(F)c(C(=O)c2c[nH]c3ncc(Cl)cc23)c1F + CCc1ccc(CCOc2ccc(CC3SC(=O)NC3=O)cc2)nc1 [pioglitazone] (first compound 0.08 µM, partner dose 2 µM) | 114 | 136 | 137 | 89.1 | 88.9 | 103 | 95 | 67.6 | 93.1 |
| CCCS(=O)(=O)Nc1ccc(F)c(C(=O)c2c[nH]c3ncc(Cl)cc23)c1F + N#Cc1c(O)c2c(-c3ccc(-c4ccccc4O)cc3)csc2[nH]c1=O [A769662] (first compound 0.08 µM, partner dose 2 µM) | 102 | 141 | 101 | 86.3 | 93 | 81.1 | 104 | 104 | 94.9 |
| C=C(c1ccc(C(=O)O)cc1)c1cc2c(cc1C)C(C)(C)CCC2(C)C [Bexarotene] + O=c1cc(-c2cccc3c2Sc2ccccc2S3)oc(N2CCOCC2)c1 [KU55933] (first compound 2 µM, partner dose 1 µM) | 105 | 143 | 102 | 103 | 108 | 101 | 131 | 110 | 114 |
| C=C(c1ccc(C(=O)O)cc1)c1cc2c(cc1C)C(C)(C)CCC2(C)C [Bexarotene] + Cn1cncc1[C@@](N)(c1ccc(Cl)cc1)c1ccc2c(c1)c(-c1cccc(Cl)c1)cc(=O)n2C [tipifarnib] (first compound 2 µM, partner dose 0.01 µM) | 102 | 122 | 104 | 96.9 | 96 | 97 | 108 | 73.7 | 90.5 |
| C=C(c1ccc(C(=O)O)cc1)c1cc2c(cc1C)C(C)(C)CCC2(C)C [Bexarotene] + O=C(Nc1ccccc1)c1cc([N+](=O)[O-])ccc1Cl [GW9662] (first compound 2 µM, partner dose 2 µM) | 96.9 | 135 | 84.4 | 87.1 | 88.5 | 100 | 99.9 | 136 | 85.6 |
| CN(c1ncccc1CNc1nc(Nc2ccc3c(c2)CC(=O)N3)ncc1C(F)(F)F)S(C)(=O)=O + O=S(=O)(c1ccccc1)N(CC(F)(F)F)c1ccc(C(O)(C(F)(F)F)C(F)(F)F)cc1 [T0901317] (first compound 0.08 µM, partner dose 1.4 µM) | 81.3 | 136 | 62.2 | 78.9 | 88.9 | 88.9 | 85 | 75 | 101 |
| CN(c1ncccc1CNc1nc(Nc2ccc3c(c2)CC(=O)N3)ncc1C(F)(F)F)S(C)(=O)=O + O=C(O)c1ccc(-c2c[nH]c3ncc(-c4ccccc4)cc23)cc1C1CCCC1 [GSK650394] (first compound 0.08 µM, partner dose 0.16 µM) | 79.1 | 101 | 76.2 | 80.4 | 104 | 89.8 | 92.2 | 94.8 | 90.9 |
| C=C(c1ccc(C(=O)O)cc1)c1cc2c(cc1C)C(C)(C)CCC2(C)C [Bexarotene] + NC(=O)Nc1cc(-c2cccc(F)c2)sc1C(=O)N[C@H]1CCCNC1 [AZD7762] (first compound 2 µM, partner dose 0.02 µM) | 99 | 115 | 96.2 | 104 | 111 | 115 | 127 | 203 | 108 |
| CS(=O)(=O)c1ccc(C(=O)Nc2ccc(Cl)c(-c3ccccn3)c2)c(Cl)c1 [vismodegib] + C[C@@H]1CCN(C(=O)CC#N)C[C@@H]1N(C)c1ncnc2[nH]ccc12 [CP690550] (first compound 1 µM, partner dose 1 µM) | 107 | 90.6 | 97.4 | 99.6 | 103 | 99.2 | 102 | 64.1 | 104 |
| CCCS(=O)(=O)Nc1ccc(F)c(C(=O)c2c[nH]c3ncc(Cl)cc23)c1F + O=C(Nc1cccc(Cl)c1)Nc1ncc(CCNc2ncnc3ccsc23)s1 [SNS314] (first compound 0.08 µM, partner dose 0.0008 µM) | 93.8 | 99.3 | 113 | 94.2 | 95.5 | 92.6 | 99.2 | 40.3 | 99.4 |
| CN(c1ncccc1CNc1nc(Nc2ccc3c(c2)CC(=O)N3)ncc1C(F)(F)F)S(C)(=O)=O + CCCCCCCCCCCC1=C(O)C(=O)C=C(O)C1=O [Embelin] (first compound 0.08 µM, partner dose 1.2 µM) | 75.5 | 60.8 | 69.1 | 95.9 | 92.5 | 94 | 108 | 93.6 | 91.3 |
